The text below walks through data of the supplement of paper PMC11417369.

± gives the standard deviation of the averaged measurements. The list shows a part of the results.

The test system of the assay is PfAP2-G AP2 domain (GST-tagged). Briefly: gcPBM binding intensity (ln(normalized median fluorescence intensity)); higher = stronger DNA binding. The essentials: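 An Agilent 4 × 180k array carrying primer-extended double-stranded 36-bp intergenic genomic probes and negative controls received GST-tagged P. falciparum DNA-binding domains expressed in E. coli, about 25 μg on average, for 1 h. The binding buffer contained 1× PBS, 1% milk, 0.2 mg/ml BSA, 0.5% salmon testes DNA and 0.03% Triton X-100. Binding intensity is the top Masliner-normalised natural-log median intensity across replicate spots of either probe orientation, read after Alexa488 anti-GST antibody staining and a 488 nm scan.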
As for “TATTGTTGTTCATGTACACACTATAATAAAAGCAAT [CACACA_site6148]”, the “gcPBM binding intensity (ln)” value was 11.5 ± 0.73.

Consider “TAAAATATATATATGTGTACATAACATATAATTTTT [XGTACX_site1725]”, for which the “gcPBM binding intensity (ln)” value was 11.4 ± 0.91.

Take “TTATTTAGTATATTATGTACATACAATGCCTGGGAA [XGTACX_site4578]”: the “gcPBM binding intensity (ln)” value was 11.2 ± 0.72.

For “TTTTCATATTATAGTGCACACAAAAATATATATATG [CACACA_site8929]”, the “gcPBM binding intensity (ln)” value came to 10.6 ± 0.45.

In the case of “AATAATCTATATTGTACACACAAAATGGGAAAAAAA [CACACA_site6969]”, the “gcPBM binding intensity (ln)” value stood at 11.5 ± 0.92.

For the sequence “AATTAGATTTACTGAAGTACTTAATTTATTTTATTA [XGTACX_site3407]”, the “gcPBM binding intensity (ln)” value amounted to 11.1 ± 0.56.

On to “ACCCCCAATACGGAAACACACAAGTTATTTTATCAT [CACACA_site8874]”, for which the “gcPBM binding intensity (ln)” value turned out to be 10.9 ± 0.4.

Regarding “AGGTACTTTTTTAAAACACACATATAACATATACAC [CACACA_site6629]”, the “gcPBM binding intensity (ln)” value was 11.3 ± 1.1.

For the sequence “AAAAAAAAATACTACTGTACTTTTTTTGGACATCTA [XGTACX_site1096]”, the “gcPBM binding intensity (ln)” value is 11.6 ± 1.

As for “TGATTATACGCACGCGCACACACAACCAAAAAAAAA [CACACA_site3537]”, the “gcPBM binding intensity (ln)” value is 10.8 ± 0.66.

On to “TGTTTATTTTTAAAAAGTACATATATAAAAAATATC [XGTACX_site4902]”, for which the “gcPBM binding intensity (ln)” value worked out at 11.4 ± 0.98.

As for “ATAATTTGGAAACACACACACACACCCACATATATA [CACACA_site2286]”, the “gcPBM binding intensity (ln)” value stood at 10.3 ± 0.34.

Regarding “TTAAATGAAAAATGGGGTACATATATACAAATATAT [XGTACX_site5931]”, the “gcPBM binding intensity (ln)” value worked out at 11.5 ± 0.95.

Turning to “AAATACTTGTCATATTGTACATGTTTGTGATATATA [XGTACX_site3185]”, the “gcPBM binding intensity (ln)” value was found to be 10.8 ± 0.58.

For “GTTAAGAATATATAATGTACTTATTTTAATATAGTA [XGTACX_site6088]”, the “gcPBM binding intensity (ln)” value amounted to 11.1 ± 0.84.

For the sequence “AAAAAAGGAAAAGATACACACCGTAAATTAAAATTT [CACACA_site5908]”, the “gcPBM binding intensity (ln)” value came to 9.87 ± 0.11.

As for “GAAGGAATATACAATTGTACTTGGCAAAAAAAAAAA [XGTACX_site1884]”, the “gcPBM binding intensity (ln)” value is 11 ± 0.7.

As for “ATATATTTATATATTACACACAATATTGTACAGATA [CACACA_site8215]”, the “gcPBM binding intensity (ln)” value was 11.2 ± 0.73.

For “ATATATCATAATAGAGGTACACATATTATATATATA [XGTACX_site782]”, the “gcPBM binding intensity (ln)” value is 11.3 ± 0.86.

With “TTTATAAATATATATACACACACATATATATTATAT [CACACA_site8099]”, the “gcPBM binding intensity (ln)” value came to 9.9.

Take “ATATTAAATATAATTTGTACGCATTTTTTTTTTTTT [XGTACX_site1910]”: the “gcPBM binding intensity (ln)” value came out at 11.5 ± 0.82.

As for “TAAAATATAATAAAATGTACACGCATGCAATAGAAT [XGTACX_site7434]”, the “gcPBM binding intensity (ln)” value turned out to be 11.3 ± 0.61.

Consider “GCTTCTTAGTATACTTTATAAAATATATATTAAATA [XGTACX_negctrl_site57]”, for which the “gcPBM binding intensity (ln)” value is 10.1 ± 0.3.

Consider “ATATCGGGTGCATTAACACACATTTATTTGAATAAA [CACACA_site2350]”, for which the “gcPBM binding intensity (ln)” value came to 10.3 ± 0.42.

Take “AGCATTTTTCATTTTGCACACATGTTTTATGTGTAT [CACACA_site3454]”: the “gcPBM binding intensity (ln)” value is 10.1 ± 0.021.

For “AATTATAATTAATAGAGTACTGAATATATATATATA [XGTACX_site8683]”, the “gcPBM binding intensity (ln)” value was 10.9 ± 0.71.

As for “TTCCCTTTTTTTATTTGTACTTATCTTTTAAATAAT [XGTACX_site2497]”, the “gcPBM binding intensity (ln)” value was found to be 11.2 ± 0.67.

Consider “GATGATAAAATATGTACACACAGTTTATACATTTTG [CACACA_site4055]”, for which the “gcPBM binding intensity (ln)” value worked out at 11.3 ± 0.76.

As for “AATATTACAAAATATTGTCCGTACAAATTTTTAATA [XGTACX_site8129]”, the “gcPBM binding intensity (ln)” value came out at 11.4 ± 0.81.

Regarding “AAAAAAAAAAAAAAGACACACATATATATATATATA [CACACA_site633]”, the “gcPBM binding intensity (ln)” value came out at 10.1 ± 0.16.

“TTTAGATATATGGTAGTGCATAATAAAAATATAGCC [GTGCAC_site9449]”: the “gcPBM binding intensity (ln)” value was 10.4 ± 0.26.

Take “CACTCCATATTATACACACACACAAATGAAAAAAAT [CACACA_site3019]”: the “gcPBM binding intensity (ln)” value was 10.2 ± 0.34.

“ATATACATATATATGGGTACATATATTAATATATAT [XGTACX_site8358]”: the “gcPBM binding intensity (ln)” value worked out at 11.1 ± 0.81.

In the case of “TTAACATATTATAAGTGTACATATTTATAAACAAGA [XGTACX_site8806]”, the “gcPBM binding intensity (ln)” value turned out to be 11.4 ± 0.8.

Turning to “ATTTTGAAAAATAAAAGTACATATAATATATCTACA [XGTACX_site7185]”, the “gcPBM binding intensity (ln)” value amounted to 11.2 ± 0.88.

As to “TCTGTTAATATTTATACACACATATTTATTTATATA [CACACA_site6658]”, the “gcPBM binding intensity (ln)” value was found to be 9.955 ± 0.049.

As for “TATATTGAATGCAAAAGTACATTTGTGTAAATTTAT [XGTACX_site7611]”, the “gcPBM binding intensity (ln)” value is 11 ± 0.5.

For the sequence “ACTACATTATTGCATTGTACTTTTTTTTTTTTTTTA [XGTACX_site4605]”, the “gcPBM binding intensity (ln)” value worked out at 11.4 ± 0.85.

As to “TTAAAAATTATATAAGTGCATTAATATTTAGAACAA [GTGCAC_site9773]”, the “gcPBM binding intensity (ln)” value is 10.2 ± 0.47.

Regarding “AAAATATATTAAGGCACACACATACATATATATATA [CACACA_site3723]”, the “gcPBM binding intensity (ln)” value came out at 10.2 ± 0.31.

With “GAGTTAATATTTAAAAGTACAAGATGAATGTAAAAA [XGTACX_site5810]”, the “gcPBM binding intensity (ln)” value was determined as 11.3 ± 0.78.

With “TTTTTGTATTCTACCTTAACAATCTTAAAGATTTTT [CACACA_negctrl_site1157]”, the “gcPBM binding intensity (ln)” value was 9.97 ± 0.11.

Take “TTTTTTTTTTTAAAATGTACACGTAATTACATATAT [XGTACX_site752]”: the “gcPBM binding intensity (ln)” value was determined as 11.4 ± 0.95.

“TGATGGTTACGTTTATGTACACATTACAGTTAGTAT [XGTACX_site998]”: the “gcPBM binding intensity (ln)” value came to 11.6 ± 1.2.

With “TTAAAAATATATGAATGTACATATATTTATATATAT [XGTACX_site77]”, the “gcPBM binding intensity (ln)” value was determined as 10.8 ± 0.52.
